Some of the results follow.
The compounds below were run on S. aureus RN4220 (assay: growth inhibition call (relative growth <= 0.2)). Settings: 50 µM.
For `Cc1ccc(C(=O)C(C)CN2CCCCC2)cc1.Cl` (stereo not drawn), the growth inhibition call was “inactive”. With `COCCOC(=O)N1C(=O)[C@@]2(c3cc(C#CC4=CCCCC4)ccc31)[C@H](c1ccccc1OCCO)N1[C@H](c3ccccc3)[C@H](c3ccccc3)OC(=O)[C@H]1[C@@H]2C(=O)N1CCCCCCC1` the growth inhibition call was “inactive”. In the case of `Cc1ccc(S(=O)(=O)Nc2ccc3c(c2)C(=O)N([C@@H](C)CO)C[C@H](C)[C@H](CN(C)Cc2ccc(C(=O)O)cc2)OCCCC[C@@H](C)O3)cc1`, the growth inhibition call was “inactive”. For `C#CC1(O)CCC2C3CCC4=CC(=O)CCC4C3CCC21CC` (stereo not drawn), the growth inhibition call was “inactive”. `O=C([C@@H]1[C@@H](CO)[C@@H]2Cn3c(cccc3=O)[C@@H]2N1C(=O)C1CCCC1)N1CCOCC1` was tested, and the growth inhibition call was “inactive”. `C[C@@H]1CN([C@H](C)CO)C(=O)c2cc(NS(=O)(=O)c3cccs3)ccc2O[C@@H](C)CCCCO[C@@H]1CN(C)C(=O)Cc1ccccc1` was tested, and the growth inhibition call was “inactive”. In the case of `C[C@@H]1CN([C@@H](C)CO)C(=O)c2cc(C#CC3(O)CCCC3)cnc2O[C@@H]1CN(C)C(=O)Cc1ccncc1`, the growth inhibition call was “inactive”. With `COc1ccc(S(=O)(=O)N(C)C[C@@H]2OCCCC[C@H](C)Oc3ccc(NS(=O)(=O)c4cn(C)cn4)cc3C(=O)N([C@@H](C)CO)C[C@@H]2C)cc1` the growth inhibition call was “inactive”. With `C[C@@H]1CN([C@H](C)CO)C(=O)c2cc(NC(=O)Nc3ccc(C(F)(F)F)cc3)ccc2O[C@@H]1CN(C)Cc1ccc(C(F)(F)F)cc1` the growth inhibition call was “inactive”. `CC(=O)N1CSC[C@H]1C(=O)O` was tested, and the growth inhibition call was “inactive”. With `C[C@@H]1CN([C@@H](C)CO)C(=O)c2cc(NC(=O)c3ccccc3)ccc2O[C@@H](C)CCCCO[C@@H]1CN(C)Cc1ccc(C(=O)O)cc1` the growth inhibition call was “inactive”. In the case of `C[C@H](CO)N1C[C@H](C)[C@@H](CN(C)Cc2ccc3c(c2)OCO3)Oc2ccc(NC(=O)Nc3ccc(C(F)(F)F)cc3)cc2CC1=O`, the growth inhibition call was “inactive”. `Cc1noc(C)c1NC(=O)N(C)C[C@H]1Oc2ccc(NC(=O)Cn3cnnn3)cc2CC(=O)N([C@H](C)CO)C[C@H]1C` was tested, and the growth inhibition call was “inactive”. With `C[C@H]1CN([C@@H](C)CO)C(=O)c2cccc(NS(C)(=O)=O)c2O[C@H]1CN(C)C(=O)Nc1ccc(F)cc1` the growth inhibition call was “inactive”. `Cc1ccc(S(=O)(=O)Nc2cccc3c2O[C@H](CN(C)S(=O)(=O)c2ccc(F)cc2)[C@@H](C)CN([C@H](C)CO)C3=O)cc1` was tested, and the growth inhibition call was “inactive”. In the case of `C[C@@H]1CCCCO[C@@H](CN(C)Cc2ccc(C(F)(F)F)cc2)[C@@H](C)CN([C@@H](C)CO)C(=O)c2cc(NC(=O)Nc3cccc4ccccc34)ccc2O1`, the growth inhibition call was “inactive”. For `CC(CCc1ccc(O)cc1)NCCc1ccc(O)c(O)c1.Cl` (stereo not drawn), the growth inhibition call was “inactive”. In the case of `Cc1noc(C)c1S(=O)(=O)N(C)C[C@@H]1Oc2ccc(NS(=O)(=O)c3cn(C)cn3)cc2C(=O)N([C@@H](C)CO)C[C@@H]1C`, the growth inhibition call was “inactive”. With `C[C@H]1CCCCO[C@H](CN(C)C(=O)Nc2ccc(C(F)(F)F)cc2)[C@@H](C)CN([C@@H](C)CO)C(=O)c2cc(NS(=O)(=O)c3ccccc3)ccc2O1` the growth inhibition call was “inactive”. In the case of `C[C@H]1CCCCO[C@@H](CN(C)S(=O)(=O)c2cccs2)[C@@H](C)CN([C@@H](C)CO)C(=O)c2cc(NC(=O)NC3CCCCC3)ccc2O1`, the growth inhibition call was “inactive”. In the case of `C[C@H](CO)N1C[C@H](C)[C@@H](CN(C)Cc2ccccc2C(F)(F)F)OCc2ccccc2-c2ccccc2C1=O`, the growth inhibition call was “active”. With `C[C@@H]1CN([C@H](C)CO)C(=O)c2cc(NC(=O)c3ccncc3)ccc2O[C@@H]1CN(C)S(=O)(=O)c1cccs1` the growth inhibition call was “inactive”. For `Cc1noc(C)c1NC(=O)Nc1ccc2c(c1)CC(=O)N([C@H](C)CO)C[C@@H](C)[C@H](CN(C)S(C)(=O)=O)O2`, the growth inhibition call was “inactive”. With `COc1ccc(CN(C)C[C@@H]2OCCCC[C@@H](C)Oc3ccc(NS(=O)(=O)c4ccc(C)cc4)cc3C(=O)N([C@@H](C)CO)C[C@H]2C)cc1` the growth inhibition call was “inactive”. For `C[C@@H]1CN([C@H](C)CO)C(=O)CCCn2cc(nn2)CO[C@@H]1CN(C)S(=O)(=O)c1ccc(C#N)cc1`, the growth inhibition call was “inactive”. For `Cn1cnc(S(=O)(=O)N2C[C@H](O)COC[C@@H]3O[C@H](CC(=O)NC4CCCC4)CC[C@H]32)c1`, the growth inhibition call was “inactive”. For `C[C@H]1CN([C@@H](C)CO)C(=O)c2cccc(NC(=O)Nc3ccccc3)c2O[C@@H]1CN(C)CC1CCCCC1`, the growth inhibition call was “inactive”. With `C[C@@H]1CN([C@@H](C)CO)C(=O)c2cc(NS(=O)(=O)c3cccs3)ccc2O[C@@H](C)CCCCO[C@@H]1CN(C)C(=O)Nc1ccccc1` the growth inhibition call was “inactive”.
